Measured values published in the supplement of paper PMC3334620.
Over roughly 33,000 sequences, “E-score (-0.5 to 0.5)” has its median near -0.017; the highest 2% begin near 0.3. The list shows a part of the results.

target: T1, Sut1 (UniProt P53032); test: PBM E-score (8-mer binding enrichment) (E-score (-0.5 to 0.5)); higher = stronger / more preferred TF binding; most listed sequences are background and not binding sites; conditions: protein concentration: 200 nM; construct: GST-full length
T1 sequence: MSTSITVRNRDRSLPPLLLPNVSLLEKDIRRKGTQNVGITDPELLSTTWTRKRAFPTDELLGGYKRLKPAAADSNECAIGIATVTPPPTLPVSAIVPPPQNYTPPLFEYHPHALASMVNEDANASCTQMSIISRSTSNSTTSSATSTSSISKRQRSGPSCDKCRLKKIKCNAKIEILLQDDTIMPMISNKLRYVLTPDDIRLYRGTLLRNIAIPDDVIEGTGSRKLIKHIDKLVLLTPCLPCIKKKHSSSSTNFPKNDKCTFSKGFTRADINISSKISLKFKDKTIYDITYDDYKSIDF
In short: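 For each ungapped eight-base word taken together with its reverse complement, the Universal PBM Analysis Suite assigned an E-score. Binding data came from GST-tagged yeast transcription factors, applied at about 100-200 nM, on universal all-10-mer Agilent arrays made double-stranded by primer extension. Fluorescent anti-GST marked bound protein, and scans were normalised with masliner.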

| Sequence | PBM E-score |
| --- | --- |
| CTGTCGAC | -0.0759 |
| GCAAGACA | -0.143 |
| TGGCCCAA | -0.197 |
| CCACGGCG | -0.0782 |
| AGGCTCGA | -0.0616 |
| GGGCAGCA | -0.237 |
| CCGACCAA | -0.0457 |
| CCACTCTC | -0.0616 |
| ACGACACT | 0.122 |
| AGCCCATC | -0.23 |
| ACAGTCGC | -0.178 |
| GACGATAC | 0.133 |
| TCATAGAA | 0.0681 |
| ACACTTGA | -0.00965 |
| CCACATAC | 0.122 |
| AGAGCCCC | -0.164 |
| GAAAGTAC | 0.0374 |
| GCATCATA | 0.189 |
| ACATAGGT | -0.0933 |
| ATAGAAGA | 0.0626 |
| GACCAACA | 0.146 |
| ATCACGCC | -0.00259 |
| AGAGCGAG | -0.0702 |
| CCTACGCC | -0.314 |

| Sequence | PBM E-score |
| --- | --- |
| GTAGACGA | 0.0141 |
| ACACACCA | 0.0421 |
| GATTACGC | 0.0223 |
| TAGTGGGA | -0.138 |
| ACCCGGGG | -0.118 |
| CCGAGCCA | 0.00845 |
| AAGTGATC | 0.0944 |
| CTCGGTCA | -0.0926 |
| TCAGGAAA | -0.0652 |
| ATATTGGA | 0.18 |
| AATTTGCT | 0.0801 |
| CAAATGCA | 0.0654 |
| GCAAATGA | 0.0175 |
| CGAAAGAG | -0.0369 |
| TAGTATGA | 0.266 |
| AGCGAAAG | 0.0357 |
| ACCGCTAA | 0.0717 |
| CATTATCA | 0.0993 |
| AGACAATA | 0.189 |
| GCGAGAGC | 0.0778 |
| AATTTAAT | 0.317 |
| AACTAAGA | 0.161 |
| GATCTAGA | -0.0313 |
| ACATCCAT | 0.0429 |

| Sequence | PBM E-score |
| --- | --- |
| AGCCTCTG | -0.255 |
| CAGGTGTC | -0.256 |
| CCCAAAGA | 0.0185 |
| AACTGCTA | 0.0448 |
| GAAAGCGA | 0.0761 |
| ACACAATA | 0.213 |
| TACACGCA | -0.198 |
| TAAGCCAA | 0.0722 |
| GACAGTGA | -0.0429 |
| AGAATGTC | -0.0101 |
| TACGGACA | 0.282 |
| ATCTTGTA | 0.112 |
| ATAAGTCC | 0.317 |
| ACCCAGAT | -0.0968 |
| CGGACGTC | 0.0183 |
| GACGTGAC | -0.0943 |
| GAACCACA | -0.0354 |
| GAGAACAC | 0.00632 |
| CGCCATAA | -0.126 |
| TCGAAGCA | -0.112 |
| ACGGGATG | -0.254 |
| CGTCGCAC | -0.192 |
| CCTGTTCC | -0.133 |
| GGGCAGTA | -0.0376 |

| Sequence | PBM E-score |
| --- | --- |
| GGGTCACA | -0.288 |
| CGGTACGC | 0.0704 |
| ATGGCATC | 0.0898 |
| GGAGCGAA | 0.0455 |
| ATCTATTC | 0.176 |
| GTATTTGA | 0.102 |
| TATTAAGA | 0.112 |
| AGATTTCA | 0.149 |
| CGCAGTAG | -0.101 |
| AATCACTA | 0.132 |
| ATTGGGGA | -0.194 |
| CATGAGCC | -0.195 |
| TGCAGCCA | -0.204 |
| CTAGTGAC | -0.0269 |
| AGCCTTCA | 0.0442 |
| CATTGCAA | -0.0247 |
| TAAAGCAA | 0.209 |
| CTCGCCCA | -0.242 |
| AGGACGAA | 0.101 |
| AATGCCGT | 0.133 |
| TATCACCA | 0.125 |
| AGCCAGCT | -0.114 |
